From patent US20200087380A1 (Chugai, published 2020)

Molecular target: T1, hIL6R (human, UniProt P08887 20-357, limits assumed)
T1 construct: Printed as hIL6R
T1 sequence (looked up): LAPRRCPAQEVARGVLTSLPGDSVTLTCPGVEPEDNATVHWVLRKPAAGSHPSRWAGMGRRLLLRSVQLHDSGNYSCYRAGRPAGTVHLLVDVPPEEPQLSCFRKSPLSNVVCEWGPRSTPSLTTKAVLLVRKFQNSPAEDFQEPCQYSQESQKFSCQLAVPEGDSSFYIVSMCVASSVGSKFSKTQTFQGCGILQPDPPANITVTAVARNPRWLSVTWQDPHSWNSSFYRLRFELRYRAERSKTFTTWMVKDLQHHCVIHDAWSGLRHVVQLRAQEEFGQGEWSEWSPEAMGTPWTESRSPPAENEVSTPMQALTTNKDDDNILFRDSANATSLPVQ
Test: SPR (Biacore T100), antibody captured on Protein A/G chip, antigen as analyte, 25 C, 1:1 Langmuir fit

B1: anti-IL6R antibody with H chain constant region TH13 (K147E, Q175E) and L chain constant region TL16 (T180K, S131K, Q160K) (antibody, human IgG1, kappa)
heavy: QVQLQESGPGLVRPSQTLSLTCTVSGYSITSDHAWSWVRQPPGRGLEWIGYISYSGITTYNPSLKSRVTMLRDTSKNQFSLRLSSVTAADTAVYYCARSLARTTAMDYWGQGSLVTVSS[human IgG1 constant region not shown]
light: DIQMTQSPSSLSASVGDRVTITCRASQDISSYLNWYQQKPGKAPKLLIYYTSRLHSGVPSRFSGSGSGTDFTFTISSLQPEDIATYYCQQGNTLPYTFGQGTKVEIKRTVAAPSVFIFPPSDEQLKSGTAKVVCLLNNFYPREAKVQWKVDNALQSGNSKESVTEQDSKDSTYSLSSTLKLSKADYEKHKVYACEVTHQGLSSPVTKSFNRGEC
notes: IgG1/kappa; also called TH13/TL16
Q: B1 was tested. Which Kd did it give?
A: 2.9 nM

Q: And the koff?
A: 0.00044 s⁻¹

Q: What about the kon of the same binder?
A: 160000 M⁻¹ s⁻¹

B2: anti-IL6R antibody with H chain constant region G1d and L chain constant region k0 (MH0-G1d / ML0-k0) (antibody, human IgG1, kappa)
heavy: QVQLQESGPGLVRPSQTLSLTCTVSGYSITSDHAWSWVRQPPGRGLEWIGYISYSGITTYNPSLKSRVTMLRDTSKNQFSLRLSSVTAADTAVYYCARSLARTTAMDYWGQGSLVTVSS[human IgG1 constant region not shown]
light: DIQMTQSPSSLSASVGDRVTITCRASQDISSYLNWYQQKPGKAPKLLIYYTSRLHSGVPSRFSGSGSGTDFTFTISSLQPEDIATYYCQQGNTLPYTFGQGTKVEIKRTVAAPSVFIFPPSDEQLKSGTASVVCLLNNFYPREAKVQWKVDNALQSGNSQESVTEQDSKDSTYSLSSTLTLSKADYEKHKVYACEVTHQGLSSPVTKSFNRGEC
notes: IgG1/kappa; also called G1d/k0; native G1d/k0
Q: B2 was tested. Which Kd did it give?
A: 2.8 nM

Q: What about the koff of the same binder?
A: 0.00041 s⁻¹

Q: And the kon?
A: 150000 M⁻¹ s⁻¹

B3: anti-IL6R antibody with H chain constant region TH2 (Q175K) and L chain constant region TL17 (T180E, S131E, Q160E) (antibody, human IgG1, kappa)
heavy: QVQLQESGPGLVRPSQTLSLTCTVSGYSITSDHAWSWVRQPPGRGLEWIGYISYSGITTYNPSLKSRVTMLRDTSKNQFSLRLSSVTAADTAVYYCARSLARTTAMDYWGQGSLVTVSS[human IgG1 constant region not shown]
light: DIQMTQSPSSLSASVGDRVTITCRASQDISSYLNWYQQKPGKAPKLLIYYTSRLHSGVPSRFSGSGSGTDFTFTISSLQPEDIATYYCQQGNTLPYTFGQGTKVEIKRTVAAPSVFIFPPSDEQLKSGTAEVVCLLNNFYPREAKVQWKVDNALQSGNSEESVTEQDSKDSTYSLSSTLELSKADYEKHKVYACEVTHQGLSSPVTKSFNRGEC
notes: IgG1/kappa; also called TH2/TL17
Q: With B3 as the binder, how does the Kd read?
A: 3.8 nM

Q: What about the koff of the same binder?
A: 0.0005 s⁻¹

Q: And the kon?
A: 130000 M⁻¹ s⁻¹

B4: anti-IL6R antibody with H chain constant region TH15 (K147E, Q175E, K213E) and L chain constant region TL19 (T180K, S131K, Q160K, E123K) (antibody, human IgG1, kappa)
heavy: QVQLQESGPGLVRPSQTLSLTCTVSGYSITSDHAWSWVRQPPGRGLEWIGYISYSGITTYNPSLKSRVTMLRDTSKNQFSLRLSSVTAADTAVYYCARSLARTTAMDYWGQGSLVTVSSASTKGPSVFPLAPSSKSTSGGTAALGCLVEDYFPEPVTVSWNSGALTSGVHTFPAVLESSGLYSLSSVVTVPSSSLGTQTYICNVNHKPSNTKVDEKV[human IgG1 Fc not shown]
light: DIQMTQSPSSLSASVGDRVTITCRASQDISSYLNWYQQKPGKAPKLLIYYTSRLHSGVPSRFSGSGSGTDFTFTISSLQPEDIATYYCQQGNTLPYTFGQGTKVEIKRTVAAPSVFIFPPSDKQLKSGTAKVVCLLNNFYPREAKVQWKVDNALQSGNSKESVTEQDSKDSTYSLSSTLKLSKADYEKHKVYACEVTHQGLSSPVTKSFNRGEC
notes: IgG1/kappa; also called TH15/TL19
Q: Which results are given for B4?
A: Kd: 2.3 nM; koff: 0.00048 s⁻¹; kon: 210000 M⁻¹ s⁻¹
